Test results reported in patent US20110263827A1 (AbbVie / Abbott, published 2011).

B1: DVD804 (bispecific antibody)
VH: QVQLQQSGAELARPGASVKMS[about 80 residues cut from this listing]WGQGTTLTVSSASTKGPSVFPLAPQVQLQESGPGLVKPSQTLSLTCTVSGYSISSDFAWNWIRQPPGKGLEWMGYISYSGNTRYQPSLKSRITISRDTSKNQFFLKLNSVTAADTATYYCVTAGRGFPYWGQGTLVTVSS
VL: not shown
notes: DVD-Ig; HC L, LC S; variable parts only
B2: DVD774 (bispecific antibody)
VH: QVQLQQSGAELARPGASVKMS[about 80 residues cut from this listing]WGQGTTLTVSSASTKGPSVFPLAPQVQLQESGPGLVKPSQTLSLTCTVSGYSISSDFAWNWIRQPPGKGLEWMGYISYSGNTRYQPSLKSRITISRDTSKNQFFLKLNSVTAADTATYYCVTAGRGFPYWGQGTLVTVSS
VL: not shown
notes: DVD-Ig; HC L, LC L; variable parts only
B3: DVD332 (bispecific antibody)
VH: QVQLQQSGAELARPGASVKMS[about 80 residues cut from this listing]WGQGTTLTVSSASTKGPQVQLQESGPGLVKPSQTLSLTCTVSGYSISSDFAWNWIRQPPGKGLEWMGYISYSGNTRYQPSLKSRITISRDTSKNQFFLKLNSVTAADTATYYCVTAGRGFPYWGQGTLVTVSS
VL: not shown
notes: DVD-Ig; HC S, LC S; variable parts only
B4: DVD834 (bispecific antibody)
VH: QVQLQQSGAELARPGASVKMS[about 80 residues cut from this listing]WGQGTTLTVSSASTKGPQVQLQESGPGLVKPSQTLSLTCTVSGYSISSDFAWNWIRQPPGKGLEWMGYISYSGNTRYQPSLKSRITISRDTSKNQFFLKLNSVTAADTATYYCVTAGRGFPYWGQGTLVTVSS
VL: not shown
notes: DVD-Ig; HC S, LC L; variable parts only
B5: DVD773 (bispecific antibody)
VH: QVQLQESGPGLVKPSQTLSLTCTVSGYSISSDFAWNWIRQPPGKGLEWMGYISYSGNTRYQPSLKSRITISRDTSKNQFFLKLNSVTAADTATYYCVTAGRGFPYWGQGTLVTVSSASTKGPSVFPLAPQVQLQQSGAELARPGASVKMS[about 80 residues cut from this listing]WGQGTTLTVSS
VL: not shown
notes: as for B2
B6: DVD803 (bispecific antibody)
VH: QVQLQESGPGLVKPSQTLSLTCTVSGYSISSDFAWNWIRQPPGKGLEWMGYISYSGNTRYQPSLKSRITISRDTSKNQFFLKLNSVTAADTATYYCVTAGRGFPYWGQGTLVTVSSASTKGPSVFPLAPQVQLQQSGAELARPGASVKMS[about 80 residues cut from this listing]WGQGTTLTVSS
VL: not shown
notes: as for B1
B7: DVD331 (bispecific antibody)
VH: QVQLQESGPGLVKPSQTLSLTCTVSGYSISSDFAWNWIRQPPGKGLEWMGYISYSGNTRYQPSLKSRITISRDTSKNQFFLKLNSVTAADTATYYCVTAGRGFPYWGQGTLVTVSSASTKGPQVQLQQSGAELARPGASVKMS[about 80 residues cut from this listing]WGQGTTLTVSS
VL: not shown
notes: as for B3
B8: DVD833 (bispecific antibody)
VH: QVQLQESGPGLVKPSQTLSLTCTVSGYSISSDFAWNWIRQPPGKGLEWMGYISYSGNTRYQPSLKSRITISRDTSKNQFFLKLNSVTAADTATYYCVTAGRGFPYWGQGTLVTVSSASTKGPQVQLQQSGAELARPGASVKMS[about 80 residues cut from this listing]WGQGTTLTVSS
VL: not shown
notes: as for B4

target: T1, CD3 on Jurkat cells (UniProt P07766); assay: FACS on Jurkat cells
T1 construct: whole, on cells; CD3 is a complex

| Binder | EC50 |
| --- | --- |
| B1 | 0.65 nM |
| B2 | 0.89 nM |
| B3 | 0.775 nM |
| B4 | 0.7 nM |

target: EGFR on cells (human cancer cell lines; EGFR-expressing target cells) (human, UniProt P00533); assay: cell-based or functional assay

| Binder | rCTL activity IC50 (pM), impedance based |
| --- | --- |
| B5 | 16 pM |
| B6 | 42 pM |
| B1 | 0.09 pM |
| B7 | > 200000 pM |
| B8 | 12 pM |
| B3 | 0.03 pM |
| B4 | 0.08 pM |

target: T2, EGFR (UniProt P00533 partial chain, limits assumed, biotinylated); assay: direct bind ELISA, C-term VD;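 also: ELISA with antibody or DVD-Ig preparations applied to target antigen-coated plates for 1 h at room temperature, TMB colour development, absorbance read at 450 nm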
T2 construct: ELISA antigen; construct not described

| Binder | EC50 |
| --- | --- |
| B1 | 158 nM |
| B2 | 19.3 nM |
| B3 | 62.1 nM |
| B4 | 26.7 nM |

target: T2, EGFR; assay: direct bind ELISA, N-term VD;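 also: antibody or DVD-Ig preparations bound to immobilized target antigen on ELISA plates, 1 h at room temperature, TMB detection read as absorbance at 450 nm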

| Binder | EC50 |
| --- | --- |
| B5 | 4.96 nM |
| B6 | 0.23 nM |
| B7 | 3.68 nM |
| B8 | 3.03 nM |

target: T3, EGFR de2-7 on U87MG-de2-7 cells (human, UniProt P00533); assay: FACS on U87MG de2-7 cells, relative to parent antibody
T3 construct: whole, on cells; also called U287IΔ2-7

| Binder | FACS % of parent |
| --- | --- |
| B5 | 105% |
| B6 | 110% |
| B1 | 70% |
| B2 | 70% |
| B7 | 115% |
| B8 | 110% |
| B3 | 40% |
| B4 | 65% |
